# The other results are listed elsewhere or left out. Sequences were assembled here from the parent chain. Values near 0.05 are background.
# B1: TEV protease; numbered along this chain (parent)
# chain: MGESLFKGPRDYNPISSSICHLTNESDGHTTSLYGIGFGPFIITNKHLFRRNNGTLVVQSLHGVFKVKDTTTLQQHLVDGRDMIIIRMPKDFPPFPQKLKFREPQREERICLVTTNFQTKSMSSMVSDTSCTFPSGDGIFWKHWIQTKDGQCGSPLVSTRDGFIVGIHSASNFTNTNNYFTSVPKNFMELLTNQEAQQWVSGWRLNADSVLWGGHKVFMVKPEEPFQPVKEATQL
# Variants of: B1
# Assay: raw area under fraction-flipped curve 0-4 h after induction (AUC4h, not background-subtracted), DNA-recorder readout of cleavage of the substrate (dimensionless); higher = more cleavage of the substrate by the protease variant
# Conditions: temperature: 34 °C; time window: 0-4 h after rhamnose induction
# Description: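 In vivo DNA recorder in E. coli TOP10(DE3) ΔrhaA at 34 °C. Each TEVp single-site mutant (parent TEVp 0) is paired with a single-site variant of the 7-mer TEVs (canonical ENLYFQ|S). The substrate sits between flexible linkers in a Bxb1-sfGFP-TEVs-SsrA fusion, so cleavage stabilises Bxb1 and speeds flipping of a recombination array, read by NGS. The value is the raw area under the fraction-flipped curve over 0-4 h after rhamnose induction (AUC4h), with ≥20 reads per time point. It is not background-subtracted; inactive controls average about 0.047.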
# 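Further: Bxb1 expression induced with 0.2% (w/v) L-rhamnose at OD600 near 0.5, cultures sampled hourly, flipped fraction per protease–substrate barcode pair counted by paired-end Illumina sequencing.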
Variant,area with substrate ENLAFQS,area with substrate ENLCFQS,area with substrate ENLDFQS,area with substrate ENLEFQS,area with substrate ENLFFQS,area with substrate ENLGFQS,area with substrate ENLHFQS,area with substrate ENLIFQS,area with substrate ENLKFQS,area with substrate ENLNFQS,area with substrate ENLPFQS,area with substrate ENLQFQS,area with substrate ENLSFQS,area with substrate ENLVFQS,area with substrate ENLMFQS,area with substrate ENLRFQS,area with substrate ENLWFQS,area with substrate ENLLFQS,area with substrate ENLTFQS
Q146P,0.047,0.0814,0.0728,0.0355,0.0854,0.0643,0.0748,0.0831,0.0945,0.0815,0.0782,0.0837,0.0625,,,,,,
R160W,0.0633,,,,0.0934,,,0.0584,0.0929,,0.0923,,,0.0805,,,,,
V57S,0.0536,0.0648,0.0614,,0.0722,,0.0746,0.0865,0.0844,0.0522,,0.0692,0.0396,,0.0683,0.0676,0.0558,,
V126I,0.0606,0.0865,0.0574,,0.0691,0.0759,0.0613,0.0821,0.0766,0.0569,0.0771,0.0754,0.0582,,0.0544,0.0876,,0.0801,0.0778
T115Y,0.0774,,0.0628,,0.0864,,,,,0.0873,0.0569,0.0711,0.0549,,0.0559,0.0571,0.0573,,
S127I,0.0627,,0.0491,0.0727,0.103,0.069,0.0693,,0.0764,0.0944,0.031,0.0675,0.0439,0.0777,0.0772,,0.0867,0.0541,0.075
R10W,0.0628,0.0685,0.0648,0.0742,0.0764,0.0699,0.0634,0.0796,0.0822,0.065,0.0665,0.0625,0.052,,0.0639,0.0738,,0.0987,
P225C,0.0603,,0.0642,0.0675,,0.0774,0.0709,0.0805,0.102,0.0554,0.0674,0.0633,0.0785,,0.0642,0.0629,0.0559,0.0647,
K90H,0.0774,0.0855,0.0614,0.0546,0.0823,0.0781,,0.0906,0.0734,0.0838,0.0719,0.0762,0.0773,,,0.0689,0.065,0.0758,
G39Y,0.0413,0.0638,0.0378,0.0343,0.0459,,0.0557,0.0512,0.0538,0.0501,,,0.0704,,0.0472,,,,
I42V,0.0445,0.0459,0.05,0.0576,0.0637,,0.0607,0.0715,0.087,0.0835,0.055,,0.0671,,0.0838,0.05,0.0634,,0.0537
G166F,0.0442,,0.0507,0.0451,0.0487,,,,0.0569,0.0534,,0.0497,0.0598,0.0483,,0.0291,0.0554,,0.0452
P89Y,0.0472,,0.045,0.0526,0.0536,,0.0525,,0.0575,0.0575,0.0417,,0.0617,0.0923,,,,,
F163I,0.08,0.0645,0.0724,0.0533,0.0922,,0.0639,,0.0681,0.0695,,,,0.0694,,0.0699,0.0689,,
L99Q,0.0565,0.0597,0.0578,,,,0.0602,,0.0771,0.0877,0.0634,,,,,,,,
V165P,0.0127,,0.0535,0.0611,0.0515,0.072,0.0648,0.0522,0.061,0.07,0.0465,0.0587,0.0519,,,,0.0349,,
H143G,0.0326,0.0855,0.0488,,0.0779,,0.0754,0.0765,0.0678,0.0764,0.062,0.0585,0.0645,,,0.0632,,,
G39F,0.0325,0.0487,0.048,0.0447,0.0355,0.0502,0.0536,0.0354,0.0531,0.0647,0.0494,0.032,0.0409,,,,0.0455,0.0157,0.0469
D79S,0.0404,,0.0679,0.0537,0.0808,0.0573,0.0635,0.0754,0.078,0.0687,0.0653,0.0744,0.0655,0.0906,0.0777,,0.0601,,
E231N,0.0769,0.0862,0.0528,0.0632,0.0869,,0.0895,0.0819,0.082,0.0987,0.0666,0.0702,0.0678,0.0986,0.0761,,,0.0718,
G63R,0.0628,,0.0683,0.0658,0.0682,,0.0373,0.0725,0.0676,0.0733,,,0.0737,,,0.0724,,,
H21V,0.0554,0.0674,0.0542,0.0671,0.0659,0.0694,0.0656,0.0741,0.0778,0.0614,0.0549,0.0582,,0.0784,,0.0723,0.0695,,0.0469
Q234S,0.0649,,0.0639,0.0613,0.0741,0.0799,0.079,,0.0768,0.0626,0.053,0.0569,0.0717,,,0.0735,0.0681,0.0581,0.0584
I85Y,0.0626,0.0742,0.0572,0.0751,0.062,0.06,0.0634,0.06,0.0634,0.0562,0.0623,0.0466,0.0573,,0.0666,0.0718,,,
F41P,0.0488,0.0802,0.0578,0.0564,0.0502,,0.0576,0.0577,0.0551,0.0575,0.0404,0.0674,0.051,0.0594,,0.0548,0.0495,0.0436,0.0528
E231V,0.0719,0.0585,0.0583,0.0519,0.0621,0.0734,0.0711,,0.0972,0.065,0.057,0.0894,0.0736,0.0837,,0.0707,,,
